Measured values: patent US10101324B2, “Non-competitive immunoassays to detect small molecules using nanopeptamers” (priority 2012, dated 2018)

Assays:
[1] = tested on: anti-molinate monoclonal antibody (MoAb 14D7); experiment: Cross-reactivity of the PHAIA (phage anti-immunocomplex assay) with related thiocarbamate pesticides
[2] = tested on: anti-molinate monoclonal antibody (MoAb 14D7); experiment: Cross-reactivity of the pA-Nanopeptamer noncompetitive ELISA with related thiocarbamate pesticides; conditions: 100 x SC50(analyte)/SC50(cross-reacting compound), molar; mean of two independent experiments
[3] = 100 x SC50(analyte)/SC50(cross-reacting compound), mean of two independent experiments

Compound | Cross reactivity, PHAIA assay [1] [%] | Cross reactivity, PHAIA assay [1, 3] [%] | Cross reactivity, pA-Nanopeptamer assay [2] [%]
CCCCN(CC)C(=O)SCCC [Pebulate] | 7 |  | 
CCCSC(=O)N(CCC)CCC [Vernolate] |  | 4 | 5
CCCN(CCC)C(=O)SCC [EPTC] |  | 5 | 2
CCN(CC)C(=O)SCc1ccc(Cl)cc1 [thiobencarb] | 0 |  | 
CCSC(=O)N(CC(C)C)CC(C)C [Butylate] |  | 0 | 1
Cycloate |  | 9 | 10
CCSC(=O)N1CCCCCC1 [Molinate] |  | 100 | 100

Read-outs that look alike come from different tables or passages of the source.
